# Experimental data as given in article PMC5575285.
# Amino acid sequences for entries named in this document (tags omitted).
# UniProt O60583: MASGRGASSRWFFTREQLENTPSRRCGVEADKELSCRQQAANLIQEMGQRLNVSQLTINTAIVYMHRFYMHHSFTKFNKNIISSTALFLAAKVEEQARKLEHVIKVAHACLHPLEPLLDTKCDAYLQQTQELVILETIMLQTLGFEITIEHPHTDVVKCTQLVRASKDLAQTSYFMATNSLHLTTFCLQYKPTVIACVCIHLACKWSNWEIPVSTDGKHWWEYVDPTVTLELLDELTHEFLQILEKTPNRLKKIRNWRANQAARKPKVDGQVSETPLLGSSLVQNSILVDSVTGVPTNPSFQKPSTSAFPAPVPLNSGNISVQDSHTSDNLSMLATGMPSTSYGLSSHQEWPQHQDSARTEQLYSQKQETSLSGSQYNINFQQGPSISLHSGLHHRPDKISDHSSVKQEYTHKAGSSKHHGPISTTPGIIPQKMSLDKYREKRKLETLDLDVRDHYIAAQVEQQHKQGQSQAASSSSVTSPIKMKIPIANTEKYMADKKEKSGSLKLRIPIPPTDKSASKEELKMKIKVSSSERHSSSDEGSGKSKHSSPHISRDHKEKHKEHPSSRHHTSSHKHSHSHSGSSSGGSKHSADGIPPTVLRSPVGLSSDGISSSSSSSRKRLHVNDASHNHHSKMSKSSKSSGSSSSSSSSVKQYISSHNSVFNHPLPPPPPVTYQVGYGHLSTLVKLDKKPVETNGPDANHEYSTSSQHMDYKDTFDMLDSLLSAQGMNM
# UniProt P49336: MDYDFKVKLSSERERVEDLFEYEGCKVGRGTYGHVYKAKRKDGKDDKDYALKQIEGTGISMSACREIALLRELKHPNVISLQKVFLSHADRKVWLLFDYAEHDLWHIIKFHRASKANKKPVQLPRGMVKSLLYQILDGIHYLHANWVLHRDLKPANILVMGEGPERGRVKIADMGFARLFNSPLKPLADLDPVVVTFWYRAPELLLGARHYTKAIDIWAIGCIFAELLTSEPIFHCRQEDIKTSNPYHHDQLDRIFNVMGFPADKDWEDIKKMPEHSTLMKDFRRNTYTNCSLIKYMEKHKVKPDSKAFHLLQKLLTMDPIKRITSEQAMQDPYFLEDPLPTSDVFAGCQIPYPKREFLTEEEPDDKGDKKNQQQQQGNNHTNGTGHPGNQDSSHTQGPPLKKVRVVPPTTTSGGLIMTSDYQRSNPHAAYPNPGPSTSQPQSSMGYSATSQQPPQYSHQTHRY
# UniProt P50750: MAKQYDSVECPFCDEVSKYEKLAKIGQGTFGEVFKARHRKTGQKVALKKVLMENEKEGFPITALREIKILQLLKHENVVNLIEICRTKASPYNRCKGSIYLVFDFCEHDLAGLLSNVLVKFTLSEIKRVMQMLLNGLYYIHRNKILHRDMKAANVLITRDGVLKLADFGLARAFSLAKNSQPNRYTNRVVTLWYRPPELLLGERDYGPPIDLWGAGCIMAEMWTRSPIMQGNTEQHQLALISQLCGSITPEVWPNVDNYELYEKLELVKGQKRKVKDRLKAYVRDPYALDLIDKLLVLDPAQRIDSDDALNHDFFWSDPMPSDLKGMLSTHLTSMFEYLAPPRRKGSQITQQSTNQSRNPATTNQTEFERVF
# UniProt Q15291: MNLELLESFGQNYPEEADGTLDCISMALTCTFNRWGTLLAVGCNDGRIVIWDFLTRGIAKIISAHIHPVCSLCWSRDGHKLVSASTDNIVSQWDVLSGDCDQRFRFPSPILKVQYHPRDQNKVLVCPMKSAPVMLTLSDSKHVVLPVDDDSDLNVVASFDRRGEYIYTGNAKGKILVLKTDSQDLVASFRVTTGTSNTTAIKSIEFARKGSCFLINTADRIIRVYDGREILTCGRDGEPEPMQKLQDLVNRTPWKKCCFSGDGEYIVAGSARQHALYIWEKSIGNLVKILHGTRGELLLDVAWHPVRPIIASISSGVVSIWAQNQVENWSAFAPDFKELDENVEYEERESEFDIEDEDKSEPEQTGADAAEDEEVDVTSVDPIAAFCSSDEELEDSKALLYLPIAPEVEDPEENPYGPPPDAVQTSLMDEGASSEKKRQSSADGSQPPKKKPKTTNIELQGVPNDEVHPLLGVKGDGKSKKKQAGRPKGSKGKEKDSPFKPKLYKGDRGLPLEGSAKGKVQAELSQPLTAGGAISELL
# UniProt O96028: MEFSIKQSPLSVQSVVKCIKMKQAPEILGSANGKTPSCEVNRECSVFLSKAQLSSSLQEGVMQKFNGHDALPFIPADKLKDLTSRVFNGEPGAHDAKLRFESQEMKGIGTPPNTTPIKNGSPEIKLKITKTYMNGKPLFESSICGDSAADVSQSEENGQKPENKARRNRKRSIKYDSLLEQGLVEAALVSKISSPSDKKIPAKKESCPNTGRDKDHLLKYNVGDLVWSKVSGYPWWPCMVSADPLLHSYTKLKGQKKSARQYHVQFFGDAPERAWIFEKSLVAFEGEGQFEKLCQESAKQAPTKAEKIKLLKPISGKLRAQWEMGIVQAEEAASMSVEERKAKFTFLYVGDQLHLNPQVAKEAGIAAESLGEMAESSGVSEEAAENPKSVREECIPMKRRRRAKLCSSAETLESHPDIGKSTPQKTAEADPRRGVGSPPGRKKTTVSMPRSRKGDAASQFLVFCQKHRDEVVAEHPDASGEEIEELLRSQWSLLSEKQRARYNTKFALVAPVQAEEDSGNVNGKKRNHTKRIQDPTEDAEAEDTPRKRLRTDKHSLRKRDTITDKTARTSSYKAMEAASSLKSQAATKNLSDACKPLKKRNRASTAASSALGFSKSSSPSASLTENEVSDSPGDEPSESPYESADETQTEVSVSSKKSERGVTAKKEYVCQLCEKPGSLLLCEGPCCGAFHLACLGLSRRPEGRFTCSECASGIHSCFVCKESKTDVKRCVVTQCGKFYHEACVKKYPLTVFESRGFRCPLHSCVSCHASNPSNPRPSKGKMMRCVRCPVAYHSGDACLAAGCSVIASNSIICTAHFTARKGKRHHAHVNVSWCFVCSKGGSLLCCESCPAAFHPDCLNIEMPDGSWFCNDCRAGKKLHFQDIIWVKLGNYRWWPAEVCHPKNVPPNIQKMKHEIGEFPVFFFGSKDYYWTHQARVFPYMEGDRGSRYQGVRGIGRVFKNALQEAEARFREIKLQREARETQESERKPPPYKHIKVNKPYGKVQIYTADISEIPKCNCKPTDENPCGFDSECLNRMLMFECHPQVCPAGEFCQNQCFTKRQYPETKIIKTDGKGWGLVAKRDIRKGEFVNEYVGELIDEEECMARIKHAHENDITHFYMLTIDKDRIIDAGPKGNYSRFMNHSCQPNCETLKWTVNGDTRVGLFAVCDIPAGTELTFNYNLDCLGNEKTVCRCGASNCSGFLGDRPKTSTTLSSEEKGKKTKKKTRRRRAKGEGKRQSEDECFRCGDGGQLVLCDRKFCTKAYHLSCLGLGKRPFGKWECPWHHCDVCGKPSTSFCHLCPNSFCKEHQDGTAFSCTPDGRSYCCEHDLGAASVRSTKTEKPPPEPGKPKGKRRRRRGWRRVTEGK
# UniProt O94992: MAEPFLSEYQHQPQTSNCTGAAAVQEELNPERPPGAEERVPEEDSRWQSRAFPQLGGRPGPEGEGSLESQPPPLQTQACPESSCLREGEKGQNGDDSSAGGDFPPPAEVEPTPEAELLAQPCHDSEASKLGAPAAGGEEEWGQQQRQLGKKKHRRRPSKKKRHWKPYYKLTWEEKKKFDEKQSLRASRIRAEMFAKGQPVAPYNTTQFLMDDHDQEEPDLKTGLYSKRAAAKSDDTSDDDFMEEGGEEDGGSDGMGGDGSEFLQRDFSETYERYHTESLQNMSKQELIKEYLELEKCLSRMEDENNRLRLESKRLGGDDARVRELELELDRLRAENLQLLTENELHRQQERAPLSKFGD
# These are yes or no findings as the source states them, for the method shown. In cells and extracts the contact can be indirect. Some binding calls cover weakened binding; strength is not graded here. For part of these data: Where a sequence is shown, tags or fusion partners need not be part of it.
# T1: Flag-ETS1 (UniProt P14921)
# T1 sequence: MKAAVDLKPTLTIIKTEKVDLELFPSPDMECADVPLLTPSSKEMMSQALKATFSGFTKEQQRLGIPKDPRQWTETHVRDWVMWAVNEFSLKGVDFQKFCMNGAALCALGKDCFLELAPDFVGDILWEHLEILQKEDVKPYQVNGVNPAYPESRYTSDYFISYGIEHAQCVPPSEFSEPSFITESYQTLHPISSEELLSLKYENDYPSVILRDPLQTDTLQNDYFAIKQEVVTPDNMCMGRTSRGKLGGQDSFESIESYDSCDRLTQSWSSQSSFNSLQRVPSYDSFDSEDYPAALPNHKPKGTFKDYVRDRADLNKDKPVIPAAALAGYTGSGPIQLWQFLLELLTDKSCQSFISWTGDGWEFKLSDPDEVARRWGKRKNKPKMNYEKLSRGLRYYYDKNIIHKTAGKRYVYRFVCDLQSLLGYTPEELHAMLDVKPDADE
# T2: ETS1 (endogenous, HUVEC) (human (endogenous in HUVEC)) (UniProt P14921)
# T2 sequence: T1 sequence
# B1: LARP7 (endogenous, HUVEC) (protein, UniProt Q4G0J3 1-582)
# chain: METESGNQEKVMEEESTEKKKEVEKKKRSRVKQVLADIAKQVDFWFGDANLHKDRFLREQIEKSRDGYVDISLLVSFNKMKKLTTDGKLIARALRSSAVVELDLEGTRIRRKKPLGERPKDEDERTVYVELLPKNVNHSWIERVFGKCGNVVYISIPHYKSTGDPKGFAFVEFETKEQAAKAIEFLNNPPEEAPRKPGIFPKTVKNKPIPALRVVEEKKKKKKKKGRMKKEDNIQAKEENMDTSNTSISKMKRSRPTSEGSDIESTEPQKQCSKKKKKRDRVEASSLPEVRTGKRKRSSSEDAESLAPRSKVKKIIQKDIIKEASEASKENRDIEISTEEEKDTGDLKDSSLLKTKRKHKKKHKERHKMGEEVIPLRVLSKSEWMDLKKEYLALQKASMASLKKTISQIKSESEMETDSGVPQNTGMKNEKTANREECRTQEKVNATGPQFVSGVIVKIISTEPLPGRKQVRDTLAAISEVLYVDLLEGDTECHARFKTPEDAQAVINAYTEINKKHCWKLEILSGDHEQRYWQKILVDRQAKLNQPREKKRGTEKLITKAEKIRLAKTQQASKHIRFSEYD
# B2: AFF4 (endogenous, HUVEC) (protein, UniProt Q9UHB7 1-1163)
# chain: MNREDRNVLRMKERERRNQEIQQGEDAFPPSSPLFAEPYKVTSKEDKLSSRIQSMLGNYDEMKDFIGDRSIPKLVAIPKPTVPPSADEKSNPNFFEQRHGGSHQSSKWTPVGPAPSTSQSQKRSSGLQSGHSSQRTSAGSSSGTNSSGQRHDRESYNNSGSSSRKKGQHGSEHSKSRSSSPGKPQAVSSLNSSHSRSHGNDHHSKEHQRSKSPRDPDANWDSPSRVPFSSGQHSTQSFPPSLMSKSNSMLQKPTAYVRPMDGQESMEPKLSSEHYSSQSHGNSMTELKPSSKAHLTKLKIPSQPLDASASGDVSCVDEILKEMTHSWPPPLTAIHTPCKTEPSKFPFPTKESQQSNFGTGEQKRYNPSKTSNGHQSKSMLKDDLKLSSSEDSDGEQDCDKTMPRSTPGSNSEPSHHNSEGADNSRDDSSSHSGSESSSGSDSESESSSSDSEANEPSQSASPEPEPPPTNKWQLDNWLNKVNPHKVSPASSVDSNIPSSQGYKKEGREQGTGNSYTDTSGPKETSSATPGRDSKTIQKGSESGRGRQKSPAQSDSTTQRRTVGKKQPKKAEKAAAEEPRGGLKIESETPVDLASSMPSSRHKAATKGSRKPNIKKESKSSPRPTAEKKKYKSTSKSSQKSREIIETDTSSSDSDESESLPPSSQTPKYPESNRTPVKPSSVEEEDSFFRQRMFSPMEEKELLSPLSEPDDRYPLIVKIDLNLLTRIPGKPYKETEPPKGEKKNVPEKHTREAQKQASEKVSNKGKRKHKNEDDNRASESKKPKTEDKNSAGHKPSSNRESSKQSAAKEKDLLPSPAGPVPSKDPKTEHGSRKRTISQSSSLKSSSNSNKETSGSSKNSSSTSKQKKTEGKTSSSSKEVKEKAPSSSSNCPPSAPTLDSSKPRRTKLVFDDRNYSADHYLQEAKKLKHNADALSDRFEKAVYYLDAVVSFIECGNALEKNAQESKSPFPMYSETVDLIKYTMKLKNYLAPDATAADKRLTVLCLRCESLLYLRLFKLKKENALKYSKTLTEHLKNSYNNSQAPSPGLGSKAVGMPSPVSPKLSPGNSGNYSSGASSASASGSSVTIPQKIHQMAASYVQVTSNFLYATEIWDQAEQLSKEQKEFFAELDKVMGPLIFNASIMTDLVRYTRQGLHWLRQDAKLIS
# Target: T1, Flag-ETS1
# Assay: co-IP; 293T cells co-transfected with expression constructs (with or without CBP); total protein in IP buffer (20 mM Tris-Cl pH 8, 150 mM NaCl, 1% NP-40, 1 mM EDTA, DNaseI, 10 mM sodium butyrate); FLAG-tagged ETS1 or ETS1 NT precipitated with M2 Flag antibody magnetic beads overnight at 4 °C; partners detected with HA or V5 antibodies
row,binding,Molecule
1,binds,"CCNT2 (tagged, 293T) (from UniProt O60583 1-730)"
2,no binding,"CDK8 (tagged, 293T) (from UniProt P49336 1-464)"
3,binds,"CDK9 (tagged, 293T) (from UniProt P50750 1-372)"
4,no binding,"RbBP5 (tagged, 293T) (from UniProt Q15291 1-538)"
5,no binding,"WHSC1 (tagged, 293T) (from UniProt O96028 1-1365)"

# Target: T2, ETS1 (endogenous, HUVEC) (human (endogenous in HUVEC))
# Assay: co-IP; HUVEC nuclear extract; endogenous ETS1 precipitated with specific antibody and Protein G Dynal beads; endogenous partners detected by immunoblot; also after VEGF for the indicated times, with or without ERK inhibitor PD598059
row,binding,Molecule
1,binds,"CDK9 (endogenous, HUVEC) (from UniProt P50750 1-372)"
2,no binding,"HEXIM1 (endogenous, HUVEC) (from UniProt O94992 1-359)"
3,no binding,B1
4,binds,B2
